This is one part of the list. Single values of this set are uncertain. Values with irradiation are relative to irradiated vehicle.
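Note: viability correction based on the alamar blue assay, with concentrations leaving 10% survival or less dropped.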

This test concerns A549-Dual. The test can be described thus: NF-kB reporter (SEAP) activity, viability-corrected, relative to vehicle (fold change vs vehicle); higher = more activation of STING-IRF / NF-kB immune response reporter. The conditions noted are these: 10 µM; irradiation: none.
`COc1cc2nc(N(C)CCCNC(=O)C3CCCO3)nc(N)c2cc1OC.Cl` (configuration not stated) [Alfuzosin HCl] registered an NF-kB reporter of 1.12.

In the case of `N=C(N)NCCCC1NC(=O)C(CCCCN)NC(=O)C(Cc2ccccc2)NC(=O)C(CC(=O)O)NC(=O)CNC1=O.O=C(O)C(F)(F)F` (configuration not stated) [Cyclo (-RGDfK)], the NF-kB reporter was 0.677.

`CC(C)=CCCC(C)(OC1OC(CO)C(O)C(O)C1O)C1CCC2(C)C1C(O)CC1C3(C)CCC(O)C(C)(C)C3C(OC3OC(CO)C(O)C(O)C3OC3OC(C)C(O)C(O)C3O)CC12C` (configuration not stated) [Ginsenoside Re] showed an NF-kB reporter of 0.848.

In turn, `Cc1onc(-c2ccccc2)c1-c1ccc(S(N)(=O)=O)cc1` [Valdecoxib] came in with an NF-kB reporter of 0.961.

Consider `Cc1cc(C)nc(NS(=O)(=O)c2ccc(N)cc2)n1` [Sulfamethazine], for which the NF-kB reporter was 0.843.

Turning to `NC12CC3CC(CC(C3)C1)C2` [Amantadine], the NF-kB reporter was found to be 1.16.

The compound `O=C(NCC(O)CO)c1c(I)c(C(=O)NCC(O)CO)c(I)c(N(CCO)C(=O)CO)c1I` (configuration not stated) [Ioversol] yielded an NF-kB reporter of 0.832.

Take `CCN(CC)CC(=O)Oc1ccc(NC(C)=O)cc1.Cl` [Propacetamol hydrochloride]: the NF-kB reporter was 0.99.

`CCS(=O)(=O)CCn1c([N+](=O)[O-])cnc1C` [Tinidazole] registered an NF-kB reporter of 0.987.

`CCCCOc1ccc(OCCCN2CCOCC2)cc1.Cl` [Pramoxine HCl] showed an NF-kB reporter of 0.98.

As for `Cc1nc[nH]c1CN1CCc2c(c3ccccc3n2C)C1=O.Cl` [Alosetron Hydrochloride], the NF-kB reporter was found to be 0.882.

For `OCC(O)COc1ccc(Cl)cc1` (configuration not stated) [Chlorphenesin], the NF-kB reporter turned out to be 0.749.

Values taken from the supplement of paper PMC9174493.
